Laboratory results reported in the supplement of paper PMC8821664.
Where a name gives a salt, the structure may show the parent alone. The list shows a part of the results. Single values are uncertain, as repeats are few or missing.

tested on: Beas-2B AQP5-HiBiT reporter cells; assay: AQP5-HiBiT luminescence relative to vehicle (ratio to vehicle); higher = higher AQP5-HiBiT protein abundance; settings: 10 µM; 18 h
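Note: monoclonal Beas-2B line stably carrying CMV promoter-driven AQP5-HiBiT, 5,000 cells per well in 384-well plates, lytic HiBiT plus LgBiT NanoLuc luminescence, FDA-approved drug library screen.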

Row | Compound | AQP5-HiBiT luminescence
1 | C[C@]12CCC(=O)C=C1CC[C@@H]1[C@@H]2C(=O)C[C@@]2(C)[C@H]1CC[C@]2(O)C(=O)CO [Cortisone] | 0.995
2 | O=C(O[C@H]1CN2CCC1CC2)N1CCc2ccccc2[C@@H]1c1ccccc1 [Solifenacin succinate] | 1.54
3 | CC(C)n1c(/C=C/C(O)CC(O)CC(=O)O)c(-c2ccc(F)cc2)c2ccccc21 (centres undefined) [Fluvastatin sodium salt] | 0.933
4 | Cc1cccc(CN2CCN(C(c3ccccc3)c3ccc(Cl)cc3)CC2)c1 (centres undefined) [Meclizine 2hydrochloride] | 0.826
5 | C[N+]1(CCCCC[N+]2(C)CCCC2)CCCC1 [Pentolinium Tartrate] | 0.641
6 | CC/C(=C(/CC)c1ccc(O)cc1)c1ccc(O)cc1 [Diethylstilbestrol] | 1.35
7 | C[C@]12CCC(=O)C=C1CC[C@@H]1[C@@H]2[C@@H](O)C[C@@]2(C)[C@H]1CC[C@]2(O)C(=O)CO [Hydrocortisone] | 0.819
8 | CCc1nc(N)nc(N)c1-c1ccc(Cl)cc1 [Pyrimethamine] | 0.834
9 | CC(=O)OCC(=O)[C@@]12OC(C)(C)O[C@@H]1C[C@H]1[C@@H]3C[C@H](F)C4=CC(=O)C=C[C@]4(C)[C@@]3(F)[C@@H](O)C[C@@]12C [Fluocinonide] | 0.953
